# The list shows a part of the results.
# B1: SLP (Clostridium difficile), Q183M8 (protein)
# chain: MATTGTQGYTVVKNDWKKAVKQLQDGLKDNSIGKITVSFNDGVVGEVAPKSANKKADRDAAAEKLYNLVNTQLDKLGDGDYVDFSVDYNLENKIITNQADAEAIVTKLNSLNEKTLIDIATKDTFGMVSKTQDSEGKNVAATKALKVKDVATFGLKSGGSEDTGYVVEMKAGAVEDKYGKVGDSTAGIAINLPSTGLEYAGKGTTIDFNKTLKVDVTGGSTPSAVAVSGFVTKDDTDLAKSGTINVRVINAKEESIDIDASSYTSAENLAKRYVFDPDEISEAYKAIVALQNDGIESNLVQLVNGKYQVIFYPEGKRLETKSLEHHHHHH
# What was measured:
# Assay in all cases: glycan array binding signal (z-score within array); higher = stronger binding
# Details in all cases: glycan notation: IUPAC condensed, linker removed
# Fuc(a1-2)[Gal(a1-3)]Gal = target: Fuc(a1-2)[Gal(a1-3)]Gal
# How it was run: (§1)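 Negative Z-scores can be read as non-binding. The Z-score is calculated within each array and then averaged across arrays of one protein sequence at different concentrations or buffers and across linkers. Arrays, 3228 in all, were curated from the Consortium for Functional Glycomics database and kept only where the protein sequence was available.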
# [1] = target: Fuc(a1-2)[Gal(a1-3)]Gal(b1-3)GlcNAc
# How it was run: as §1
# [2] = target: Fuc(a1-2)[Gal(a1-3)]Gal(b1-3)GlcNAc(b1-2)Man(a1-3)[Fuc(a1-2)[Gal(a1-3)]Gal(b1-3)GlcNAc(b1-2)Man(a1-6)]Man(b1-4)GlcNAc(b1-4)GlcNAc
# How it was run: as §1
# [3] = target: Fuc(a1-2)[Gal(a1-3)]Gal(b1-4)Glc
# How it was run: as §1
# [4] = target: Fuc(a1-2)[Gal(a1-3)]Gal(b1-4)GlcNAc
# How it was run: as §1
# [5] = target: Fuc(a1-2)[Gal(a1-3)]Gal(b1-4)GlcNAc(b1-2)Man(a1-3)[Fuc(a1-2)[Gal(a1-3)]Gal(b1-4)GlcNAc(b1-2)Man(a1-6)]Man(b1-4)GlcNAc(b1-4)GlcNAc
# How it was run: as §1
# [6] = target: Fuc(a1-2)[Gal(a1-3)]Gal(b1-4)[Fuc(a1-3)]GlcNAc
# How it was run: as §1
# [7] = target: Fuc(a1-2)[Gal(a1-4)]Gal(b1-4)GlcNAc
# How it was run: as §1
# [8] = target: Fuc(a1-2)[GalNAc(a1-3)]Gal
# How it was run: as §1
# [9] = target: Fuc(a1-2)[GalNAc(a1-3)]Gal(b1-3)GalNAc(a1-3)[Fuc(a1-2)]Gal(b1-4)GlcNAc
# How it was run: as §1
# [10] = target: Fuc(a1-2)[GalNAc(a1-3)]Gal(b1-3)GlcNAc
# How it was run: as §1
# [11] = target: Fuc(a1-2)[GalNAc(a1-3)]Gal(b1-3)GlcNAc(b1-2)Man(a1-3)[Fuc(a1-2)[GalNAc(a1-3)]Gal(b1-3)GlcNAc(b1-2)Man(a1-6)]Man(b1-4)GlcNAc(b1-4)GlcNAc
# How it was run: as §1
# [12] = target: Fuc(a1-2)[GalNAc(a1-3)]Gal(b1-4)Glc
# How it was run: as §1
# [13] = target: Fuc(a1-2)[GalNAc(a1-3)]Gal(b1-4)GlcNAc
# How it was run: as §1
# [14] = target: Fuc(a1-2)[GalNAc(a1-3)]Gal(b1-4)GlcNAc(b1-2)Man(a1-3)[Fuc(a1-2)[GalNAc(a1-3)]Gal(b1-4)GlcNAc(b1-2)Man(a1-6)]Man(b1-4)GlcNAc(b1-4)GlcNAc
# How it was run: as §1
# [15] = target: Fuc(a1-2)[GalNAc(a1-3)]Gal(b1-4)GlcNAc(b1-3)Gal(b1-4)GlcNAc
# How it was run: as §1
# [16] = target: Fuc(a1-2)[GalNAc(a1-3)]Gal(b1-4)GlcNAc(b1-3)Gal(b1-4)GlcNAc(b1-3)Gal(b1-4)GlcNAc
# How it was run: as §1
# [17] = target: Fuc(a1-2)[GalNAc(a1-3)]Gal(b1-4)[Fuc(a1-3)]GlcNAc
# How it was run: as §1
# [18] = target: Fuc(a1-2)[GalNAc(a1-4)]Gal(b1-4)GlcNAc
# How it was run: as §1
# [19] = target: Fuc(a1-2)[GalNAc(b1-3)]Gal
# How it was run: as §1
# Fuc(a1-3)GlcNAc = target: Fuc(a1-3)GlcNAc
# How it was run: as §1
# [20] = target: Fuc(a1-3)[Gal(b1-4)]Glc6S
# How it was run: as §1
# [21] = target: Fuc(a1-3)[Gal(b1-4)]GlcNAc
# How it was run: as §1
# [22] = target: Fuc(a1-3)[Gal(b1-4)]GlcNAc(b1-2)Man(a1-3)[Fuc(a1-3)[Gal(b1-4)]GlcNAc(b1-2)Man(a1-6)]Man(b1-4)GlcNAc(b1-4)GlcNAc
# How it was run: as §1
# [23] = target: Fuc(a1-3)[Gal(b1-4)]GlcNAc(b1-3)Gal(b1-3)[Fuc(a1-4)]GlcNAc
# How it was run: as §1
# [24] = target: Fuc(a1-3)[Gal(b1-4)]GlcNAc(b1-3)GalNAc
# How it was run: as §1
# [25] = target: Fuc(a1-3)[Gal(b1-4)]GlcNAc(b1-4)Gal(b1-4)[Fuc(a1-3)]GlcNAc
# How it was run: as §1
# [26] = target: Fuc(a1-3)[Gal(b1-4)]GlcNAc(b1-4)Gal(b1-4)[Fuc(a1-3)]GlcNAc(b1-4)Gal(b1-4)[Fuc(a1-3)]GlcNAc
# How it was run: as §1
# [27] = target: Fuc(a1-3)[Gal(b1-4)]GlcNAc(b1-6)[Gal(b1-3)GlcNAc(b1-3)]Gal(b1-4)Glc
# How it was run: as §1
# [28] = target: Fuc(a1-3)[Gal(b1-4)]GlcNAc6S
# How it was run: as §1
# [29] = target: Fuc(a1-3)[Gal3S(b1-4)]GlcNAc
# How it was run: as §1
# [30] = target: Fuc(a1-3)[Gal3S(b1-4)]GlcNAc6S
# How it was run: as §1
# [31] = target: Fuc(a1-3)[GalNAc(b1-4)]GlcNAc
# How it was run: as §1
# Fuc(a1-4)GlcNAc = target: Fuc(a1-4)GlcNAc
# How it was run: as §1
# Fuc(b1-3)GlcNAc = target: Fuc(b1-3)GlcNAc
# How it was run: as §1
# Gal(a1-2)Gal = target: Gal(a1-2)Gal
# How it was run: as §1
# Gal(a1-3)Gal = target: Gal(a1-3)Gal
# How it was run: as §1
binder,measurement,setting,value
B1,glycan array binding signal (z-score),Fuc(a1-2)[Gal(a1-3)]Gal,-0.192
same,glycan array binding signal (z-score),[1],-0.187
same,glycan array binding signal (z-score),[2],-0.152
same,glycan array binding signal (z-score),[3],-0.196
same,glycan array binding signal (z-score),[4],-0.186
same,glycan array binding signal (z-score),[5],-0.175
same,glycan array binding signal (z-score),[6],-0.093
same,glycan array binding signal (z-score),[7],-0.135
same,glycan array binding signal (z-score),[8],-0.178
same,glycan array binding signal (z-score),[9],-0.198
same,glycan array binding signal (z-score),[10],-0.175
same,glycan array binding signal (z-score),[11],-0.152
same,glycan array binding signal (z-score),[12],-0.129
same,glycan array binding signal (z-score),[13],-0.19
same,glycan array binding signal (z-score),[14],-0.156
same,glycan array binding signal (z-score),[15],-0.209
same,glycan array binding signal (z-score),[16],-0.15
same,glycan array binding signal (z-score),[17],-0.147
same,glycan array binding signal (z-score),[18],-0.179
same,glycan array binding signal (z-score),[19],-0.158
same,glycan array binding signal (z-score),Fuc(a1-3)GlcNAc,-0.168
same,glycan array binding signal (z-score),[20],-0.171
same,glycan array binding signal (z-score),[21],-0.151
same,glycan array binding signal (z-score),[22],-0.171
same,glycan array binding signal (z-score),[23],-0.175
same,glycan array binding signal (z-score),[24],-0.115
same,glycan array binding signal (z-score),[25],-0.064
same,glycan array binding signal (z-score),[26],-0.187
same,glycan array binding signal (z-score),[27],-0.171
same,glycan array binding signal (z-score),[28],-0.143
same,glycan array binding signal (z-score),[29],-0.151
same,glycan array binding signal (z-score),[30],-0.026
same,glycan array binding signal (z-score),[31],-0.178
same,glycan array binding signal (z-score),Fuc(a1-4)GlcNAc,-0.158
same,glycan array binding signal (z-score),Fuc(b1-3)GlcNAc,-0.167
same,glycan array binding signal (z-score),Gal(a1-2)Gal,-0.157
same,glycan array binding signal (z-score),Gal(a1-3)Gal,-0.209
